According to the supplement of paper PMC11417369:
± gives the standard deviation of the averaged measurements. This is one part of the list.

What follows are sequences tested on PfAP2-EXP AP2 domain (GST-tagged) (assay: gcPBM binding intensity (ln(normalized median fluorescence intensity)); higher = stronger DNA binding).
Procedure, shortened: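 Using an Agilent 4 × 180k array, primer-extended double-stranded 36-bp intergenic genomic probes and negative controls were exposed for 1 h to GST-fused P. falciparum DNA-binding domains expressed in E. coli. Binding was carried out in 1× PBS with 1% milk, 0.2 mg/ml BSA, 0.5% salmon testes DNA and 0.03% Triton X-100, and protein was detected with Alexa488 anti-GST antibody and a 488 nm scan. Binding intensity is the highest Masliner-normalised natural-log median intensity across replicate spots of either probe orientation.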

| Sequence | gcPBM binding intensity (ln) |
| --- | --- |
| ATTTTTCTTTTTAATACACACAAAAGTGATACAAAC [CACACA_site3923] | 8.6 ± 0.48 |
| TTTTTTTGTATTTGTTTATTTAATGATAAAATTAAA [CACACA_negctrl_site225] | 8.51 ± 0.45 |
| TGTATTATATATACACAAATATTTATGTGTGTGTTT [XGTACX_negctrl_site475] | 8.38 ± 0.28 |
| TTGTTCTATTTAAGTAGTACATACACACACATATAC [XGTACX_site8484] | 8.84 ± 0.3 |
| ACATATATATATTCTACACACTTATAATATAATACA [CACACA_site2461] | 8.62 ± 0.46 |
| CACAATACTTTCATCACACATATATATATATATATA [CACACA_site4677] | 10.1 ± 0.28 |
| TATATATATATATATAGTACATATTTATATATGAAA [XGTACX_site8488] | 10.1 ± 0.36 |
| GAATTAAAATAATACGTACACACATGTATAATACAT [CACACA_site1004] | 8.73 ± 0.23 |
| TTTCGTTCATAAAAAAGTACATATGAGCAAAAGGTA [XGTACX_site8936] | 8.75 ± 0.3 |
| ACTAAACTAATATGTACACACATATAACATTAATTT [CACACA_site7128] | 8.49 ± 0.2 |
| TGCACAAAATTATGCACACACCTAAAATTAATTTTT [CACACA_site5596] | 8.93 ± 0.057 |
| ATTCTAATCATATACACACCCATATATATATATATA [CACACA_site1774] | 10.3 ± 0.3 |
| GGCAATGATTTTAGGTGTACTTAAAAATCAAATTAA [XGTACX_site8587] | 8.48 ± 0.14 |
| TATAAAAAATAAAATACACACACATATATATATATA [CACACA_site8365] | 10.1 ± 0.2 |
| TAATTTCTTATGTGCTATCTTATATAGAATTAATTT [CACACA_negctrl_site1726] | 8.54 ± 0.54 |
| TTATTCTAAAAAGGGTGTACACAAACGAATGGAAAA [XGTACX_site5662] | 9.39 ± 0.52 |
| AAAAAAAAAATTTAGGTGCATACAAATAAATTATAT [GTGCAC_site9521] | 8.46 ± 0.23 |
| AGCAGTCAGCAGGACAGTACACAGTAGCCAGGAAAT [XGTACX_site4877] | 8.7 ± 0.62 |
| ATGGCTAAAAGTTGCACACACACAAAAAAAAAAAAA [CACACA_site3289] | 8.41 ± 0.4 |
| TATATATTAATATGCACACACAAGAAGTAATTATAA [CACACA_site3193] | 8.91 ± 0.36 |
| ATTATATAACAAAATAGTACATATATTTATTACATC [XGTACX_site336] | 8.28 ± 0.31 |
| GGCATACACGGACACACACACACACCGACATATATA [CACACA_site4493] | 8.95 ± 0.35 |
| ATTATATATATTTATGCACACAAAATATATTATATA [CACACA_site9244] | 8.3 ± 0.26 |

| Sequence | gcPBM binding intensity (ln) |
| --- | --- |
| TATATACATTTATATACACACCTATATTTATTTATA [CACACA_site7014] | 8.43 ± 0.51 |
| TTTTTTTAACGGTGTGCACACAATATACAGAAAAAA [CACACA_site1415] | 9.09 ± 0.64 |
| ATGTACCTATTTCATACACACACACCCACAAACAAA [CACACA_site8232] | 8.83 ± 0.47 |
| TATATTGAAAATAAAACATGCAATCACTCATACATA [TGCATGCA_site248] | 8.61 ± 0.26 |
| CAACAATTTCGTCATACACACATTCAGAATCTATAT [CACACA_site7171] | 8.56 ± 0.56 |
| TATACATTTATGTACACACACATATAGGTATATTTA [CACACA_site7408] | 8.47 ± 0.099 |
| AAAATATAATATATTACACACATATATTTTATAAGT [CACACA_site668] | 8.27 ± 0.38 |
| CAAACTACAAAATTTCGTACGCATATATTTCAAGTA [XGTACX_site5154] | 8.57 ± 0.37 |
| AAAACATACATATATACACACATATATATATATATA [CACACA_site1852] | 10.2 ± 0.23 |
| TATGTTGGTTCTTTTAGTACATAATTACTAAATGTA [XGTACX_site8616] | 8.56 ± 0.29 |
| CTTTTTTATATCTCTACACACATTTATAACAATTTG [CACACA_site1398] | 8.57 ± 0.2 |
| CAAAAAAGTAAAACGTGTACATATATACATAAAAAT [XGTACX_site5639] | 9.09 ± 0.48 |
| TTTAAACGTTATATAGTGCATGTCATATTTTATTAT | 8.71 ± 0.33 |
| TACGTAATAATATGCACACAAATAAACTTTATAAAT [CACACA_site3501] | 8.71 ± 0.42 |
| TGCAACAAAATAAACACACACACACTAACACAAAAA [CACACA_site7567] | 8.72 ± 0.45 |
| TTTAAAAATAAAAGTACACACATAAACATATTGCAC [CACACA_site6784] | 8.94 ± 0.14 |
| ATATTATATATATGTGCACACAAAAGATATATATAT [CACACA_site2125] | 9.445 ± 0.021 |
| CTTAAAAAAACCTTAACACACATAAACTATAATTTA [CACACA_site3055] | 8.27 ± 0.49 |
| TTTTCATTTGAAAGTCGTACAAGTTCGAAAAAAGGA [XGTACX_site6840] | 8.61 ± 0.43 |
| ATAAGCAATAAAAAAACATGCATATTATTATCAACA [TGCATGCA_site1027] | 8.67 ± 0.37 |
| TATGGTATATACAACACACACACATATGTATATATA [CACACA_site927] | 9.03 |
| TCTTTAATATATAGTGCATGTAAATTTTACAATAAT [TGCATGCA_site242] | 9.04 ± 0.26 |
| ATCAAGCACGGACACACACACACACCCAGACCCCCA [CACACA_site4360] | 9.16 ± 0.57 |

| Sequence | gcPBM binding intensity (ln) |
| --- | --- |
| AAGTTAACACAACAGGTGCAAGAAAAGTTTTTAATG | 8.66 ± 0.028 |
| AGTTAATGTTTATGTACACACGGTGGGTATATATTT [CACACA_site5785] | 8.77 ± 0.41 |
| ATATATATATATATATATATAATTTTTTTTGTTTTT [TGCATGCA_negctrl_site453] | 10.3 ± 0.3 |
| TATATTATTAATTAGGGTACAAAAAAAAAATTTTTT [XGTACX_site7762] | 8.6 ± 0.54 |
| GATATCAAAAAGATGGGTACATATATTTAAGTTCAT [XGTACX_site3822] | 8.38 ± 0.4 |
| TAGGAAAAGAAAAGCACACACATAAATAGATATATA [CACACA_site6382] | 8.71 ± 0.53 |
| TTAAATAGAAATAAGACTAACAATGAACCAAAAAAA [CACACA_negctrl_site991] | 8.87 ± 0.43 |
| TTTTGAAAAAGTTGCACACAAAATTTAAAAAAAAAA [CACACA_site1632] | 8.4 ± 0.43 |
| TCGTATATGGATTTTGCACACAATTTTAATTTAAAT [CACACA_site4635] | 9 ± 0.28 |
| ATGATTTGTCTGAAATGTACATATATATATATATAT [XGTACX_site5247] | 10.3 ± 0.47 |
| AACAAATAAACAAAATTGGAAAATAAAAATATCAAA [CACACA_negctrl_site1125] | 8.62 ± 0.33 |
| TAATAATTTTATAAAGTGCATAAAAATAAAAATTTT | 8.49 ± 0.2 |
| TTTTTTTTTTTTTTAATTAATTACCTTTGAATGTGT [CACACA_negctrl_site393] | 7.92 ± 0.64 |
| ATTATTTTTTTATGTTGTACATAATATTTTTTAAAA [XGTACX_site1666] | 8.82 ± 0.45 |
| TAATATTTATAAAATAGTACACAGAAAAAGCATTTT [XGTACX_site8948] | 8.72 ± 0.47 |
| TTCCAACATTGTTTTTGTACATAATTAACTGTTATT [XGTACX_site5224] | 8.84 ± 0.44 |
| CTTAAAAATAACTGCACACAAAAATAAATACCTTAT [CACACA_site2793] | 8.56 ± 0.46 |
| ATATATATGGATGGACGTACGTATGTATGTAATTTC [XGTACX_site4135] | 9.26 ± 0.39 |
| ATATATATTTTATTATGTACATATAAATATTACACA [XGTACX_site4062] | 8.61 ± 0.31 |
| GAAAAAATATATAAATGTACATATAATAATATCATA [XGTACX_site6788] | 8.51 ± 0.3 |
| AAATATTATGTGGCAAGTACATAAAGAAAATGCTTA [XGTACX_site3356] | 8.48 ± 0.47 |
| ATAATAAGGTTAAGCACACATATTACAGATATAACT [CACACA_site5791] | 8.48 ± 0.52 |
| AATAATAATAATAATAGTACATATTATGAATATGAT [XGTACX_site5730] | 8.29 ± 0.3 |

| Sequence | gcPBM binding intensity (ln) |
| --- | --- |
| TTAAAAATGATTGAATGTACAGATTAATATAATTTT [XGTACX_site7394] | 8.22 ± 0.35 |
| ATAAATATGGAGCACACACACATAAACATACCTATA [CACACA_site6336] | 8.77 ± 0.45 |
| GATCTACATGAAAGGACACACAAATATATATATATA [CACACA_site84] | 9.96 ± 0.22 |
| TAATTTTTGAAACACACACACATATATATATATATA [CACACA_site94] | 10.1 ± 0.43 |
| AAAAAAGAATAGCACACACACATATATAAATATAAA [CACACA_site4518] | 8.64 ± 0.54 |
| TTTAAATATATATTTAGTACTTATTCTTAAAATTTT [XGTACX_site624] | 8.47 ± 0.33 |
| TTTTTTTTTTTTTGTGCATGTAGATTTATTGTTATA [TGCATGCA_site582] | 8.91 ± 0.35 |
| GTTACATACAGATACACACACATATATATATATATA [CACACA_site4652] | 10.2 ± 0.15 |
| GTAGAGGATTAAGAATGTACACATAAATACATATTT [XGTACX_site8874] | 8.49 ± 0.092 |
| AATTATACATACATATATATATTTATATATATATAT [GTGCAC_negctrl_site462] | 9.64 ± 0.21 |
| AAAAAAAAATATATATAAAATTAAAAAATGTAATAT [GTGCAC_negctrl_site581] | 8.53 ± 0.55 |
| ATGGGTTGTTCAAATAGTACATATGTAGCCCACCAT [XGTACX_site3735] | 8.85 ± 0.48 |
| TTATATCCCGTCCTTTATTAAAAAAATTTTTTTTCT [TGCATGCA_negctrl_site582] | 8.87 ± 0.45 |
| ATTAAAAAAAAAAGTATACACACTTCTTAATGTCAA [CACACA_site1244] | 8.72 ± 0.52 |
| AAAGGGGCATATATATGTACATATTATATATTTTGA [XGTACX_site2436] | 8.57 ± 0.33 |
| ATTATCCATGCATTTACACACACACCCAAAAAAATT [CACACA_site4101] | 9.02 ± 0.48 |
| AATACATTGTCAAATTGTACAAATTATAGAACTATT [XGTACX_site2222] | 8.73 ± 0.4 |
| TGTTTTTATATATATGCACACAATGTACAAGTATAC [CACACA_site3529] | 9.01 ± 0.2 |
| CCATAAAAAGGATACACACACACACCCACATATATA [CACACA_site903] | 8.71 ± 0.45 |
| AAAGTCTCATTAAAATGTACAAAATTTTCAGCTGTA [XGTACX_site6296] | 8.36 ± 0.51 |
